PMC10726135
Some of the results follow. At the low end of the ranking the order means little. Measured with an extract: partners may take part in the binding.

Target: T1, HNF4alpha8 (COS-7 nuclear extract) (UniProt P41235-5)
T1 sequence: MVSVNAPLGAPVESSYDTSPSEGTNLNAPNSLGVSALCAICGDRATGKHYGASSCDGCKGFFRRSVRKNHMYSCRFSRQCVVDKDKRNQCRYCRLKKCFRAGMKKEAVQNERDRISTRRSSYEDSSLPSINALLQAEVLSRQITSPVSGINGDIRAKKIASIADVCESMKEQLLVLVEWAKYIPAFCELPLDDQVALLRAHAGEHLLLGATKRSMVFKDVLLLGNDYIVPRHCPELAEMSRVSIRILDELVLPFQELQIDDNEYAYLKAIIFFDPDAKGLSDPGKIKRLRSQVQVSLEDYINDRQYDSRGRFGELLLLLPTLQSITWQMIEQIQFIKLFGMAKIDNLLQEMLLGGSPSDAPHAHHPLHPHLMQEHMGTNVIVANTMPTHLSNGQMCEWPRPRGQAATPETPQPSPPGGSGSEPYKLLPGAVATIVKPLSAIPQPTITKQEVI
Experiment: protein-binding microarray
Details: COS-7 nuclear extract on double-stranded Agilent 4x180k PBM; binding buffer, salt, pH and temperature not given; high values mean tight binding; double strand, one strand shown; sequences stand for … in …GCCTAGGGAGATTAGAGTATCGGTCGA

Sequence | binding signal (log2 normalized intensity)
TAGTCAGATTCCTCTGAGTCCTCTTCCCAA | -1.35
TATGGACAATGAAATTCAGGCTGAGGTGCT | -1.4
CAAATGATCAAAGGTCGGTTTTAGGACAAC | 4.95
CAGATAATTACCTGGACTCTAGAGCCAGAC | 1.75
CTTTGCCCCAGAGGAAGACATCATATTTGT | 0.87
TTTGAAGAAGACAAAACAGCGTACTGTGCT | -1.42
CACACCGAGCACGGTGCAGGGAGGATATCC | -1.48
GGCAGCTTCAGGATGAAGGCTGCTGCCTGA | -1.39
TCCTCCAGCCCTCCTCTCTGTAGTCCTCAG | 0.507
GTAGGAGGAGATTGATGGTTTTATCAGCTG | -1.21
AGGTCACTCTTGCTAAGCTTTAGCAAAGAA | -1.32
AAATCTTCTTTAAGCTATGTGGTGGAATGG | 1.8
CCAAGGCTTCCAATCCTGGAGAAGGAGCAC | -1.31
TACTCAGCTAATCTAGAGACACTATGTGCA | -0.633
TTCCACCTCCCTCCATGCTGTAGATTGTGG | 1.24
TGGATCGGGATGATCAATGTGTAGTTTCAC | 1.11
GAAACTGTTTCCAATAGGTTTGATTTCAGC | -1.35
ACTGGCTAAATCCCACCAAAGCCATGAGGC | 1.13
AATGACTTGCCCAAGGGCATGGGAAGCAGT | -1.29
GCTGAACCTAGAGCTTCAGACGCCCTATGG | -0.782
CCTCTAACTATGCAGTGTCCATGGTGACCA | 2.01
CTGTTTCAAAACTACAAAGTGGTTTTCTTG | 0.891
GTGCTCTCAGATAAGAGATGAGGAACTTGT | -1.18
GAATCTCAGGAGTGATGCCAGAAGATTAGT | -1.19

Sequence | binding signal (log2 normalized intensity)
TACCAAAGACTGAGCAGCTGGAGGGGGACT | -1.38
CTTTTGCTGACATGCTCTTGGAATGTTGAA | 1.68
GGAACGCGCGGGCAGGTTGCCCTTTCGGTG | 4.05
CAAGTACCCTTTATCCCTCACAATCTTAAG | 0.843
TACTCTCATCACTTAGGATATTCCAAGGGG | 0.662
TCTGCCCCCTACACAGAGGAGCGACCCAGG | 3.24
CTTGGTATCAGCTTTGAGACACCTGGCCAA | -1.16
AGAGGCCAATTTCTTGTCTGGTCCGAAGGT | 1.68
GGGAATTCAAGGAATGCAGCTCAGACTGCT | -1.33
CTTATCTACTTTAAGATTTGACCCTTGGCC | 7.78
GCATGGTGCTTCGCACTTCAGCACCATAAA | 0.965
GAATATTTAAGATTCCAGCTCTCGGATCCT | -1.28
ACATGATGTCAGTTTGACTCCAAAGGGCTG | 0.898
ATCCTCATTGTGTGCAGACCTTCTCTGGCC | 1.23
GTCCAAAGTCTTTGTTCCTAGCCACCATGC | 0.801
GATATTTTTCAGACCTTGCATTCTGAGGAA | -1.24
TAAAACTGCAGATTGACTCAGGCATTCTGA | -1.12
ATTCTAGAGGTCAGAAGTCCAAAATCAGTC | 4.43
TATTAAATGGAATACTTGCCTAAGGTCAAT | 2.71
GGCTTCGTCCCTGGGGCCCCACTGGGGTGG | -1.16
CTGCACTGACCTTTACCCATTCCTTAGTGC | 5.03
TTGACCTCTCTCTCCTAACTATGGTCACGC | 2.99
ACTTAGCTCTTTAGGAATGCAACTCTAACC | -1.15
TTAGTTTCTTTACCATGTGTTGGCACTTTG | 1.73

Sequence | binding signal (log2 normalized intensity)
CATCCATATCATTAGTCTCTGCTGGCTTTC | 0.387
AATTAGCTTGAGCGAGACAGCGGGTGTTTC | -1.3
ACACTGGGCTAGAGGTCTTAATCTTTTTAC | 1.15
CGCAGCCGCGCTCCGCCCCGTTCCCGGCAG | -1.33
GGCCAAGGGATTTCAGTGCCCTCATAAGAG | -1.28
TCAGCAGTTGTTCAAAGTCCATGTGTTAAA | 4.84
AATAGGGTGACAGTATCAAAGTCCCCAGAT | 2.49
GGGACTGCAAGTACGATTGGCTGGACATCT | -1.27
GTACCAAAATCACACTGGGAATTGGGATGG | -1.34
TACCATGTCCTGTGATTAAGGTCAATGGGA | 2.3
TGGGGTACTTGAACCCTACTCATAATTGCT | 0.903
ATCCACAAAGATAAGAAAAAAACAGCACAA | -1.18
CAGTTCAAAAGTTCAAAGATATGATGGCCA | 2.12
AACCCAAGGCCAAACACGGACAGGCAGGCC | -1.32
AGCAAACAATGATGAAAGGAGCTTGGGAAG | -1.39
CCCTAATTACATATTAACCTTTGCCCCAGC | 7.29
GTTTCACCCTGAGGAATCCCATTCCCTCTA | -1.18
CTGGGCAGATAACAGCGAACATGAGGAATA | -1.06
GGACACAAAGAGTTCAGAGAGGGATTAAAG | -1.29
AGCAGGACACCAAACAGACCTCCCCCAACT | 4.08
AAGAGATAAAAGAGAAGATAATGGATTGGG | -1.35
GTGAGGTCACAGTATTCATTCCCCTAGTAT | 2.84
CTCCCCCACCACTGCTTCCTGCCCCCTGTG | 5.88
TCATGTTCAATATACAGTTGGTATTTAGTA | 1.71
